The test system of data set [1] is drug sensitive (NF54) strain of Pf. Put plainly: In vitro antiplasmodium assay, [3H]-hypoxanthine incorporation, NF54. Type of data set: cell-based. The following applies: Plasmodium falciparum, NF54, read-out: PfIC50 NF54, sensitive NF54 strain; mean n ≥ 2. The method, then: All target compounds were evaluated for their antiplasmodium activity against the drug sensitive (NF54) strain of Pf and for turbidimetric kinetic solubility.
Aqueous Solubility. Solubility was measured from amorphous solid forms of the compounds using the turbidimetric method. Following the dissolution of test compound in DMSO to make a 10 mM stock solution, a pre-dilution plate was prepared by taking from each stock solution and serially diluting in triplicate to yield concentrations from 0.25 mM to 10.0 mM on a 96 well plate. From each pre-dilution solution, secondary dilutions of the compounds in both DMSO and 0.01M pH 7.4 PBS were prepared in triplicate on a second 96-well plate. Wells in columns 1-6 would contain […]
(§1) nominal concentrations as those in DMSO. The final volume of solvent in each assay plate was 200 µl, prepared by pipetting 4 µl each of solution from the pre-dilution plate to the corresponding well into both DMSO and PBS (both 196 µL). This ensures that the final concentration of DMSO in the […]
(§2) Similarly, a second secondary plate containing
(§3) Different concentrations in DMSO were prepared as controls to determine false turbidimetric absorbance readings arising from the compounds in solution absorbing incident radiation at the test wavelength. Following preparation, the assay plate was covered and left to equilibrate for 2 h at 25 °C. Afterwards, UV-vis absorbance readings from the plate were measured at 620 nm using a SpectraMax 340PC384 microplate reader. Plots of corrected absorbance against compound concentration were computed for a graphical representation of the data using MS Excel. Reserpine and hydrocortisone were used as positive and negative controls, respectively.
(§4) In vitro Antiplasmodium Assay. The compounds were tested using the modified [3H]-hypoxanthine incorporation assay, as previously reported.1
(§5) In vitro Cytotoxicity Assay. Compounds were screened against Chinese Hamster Ovarian (CHO) mammalian cell lines, using the 3-(4,5-dimethylthiazol-2-yl)-2,5-diphenyltetrazoliumbromide […]
(§6) It was prepared to 2 mg/ml in distilled water, while the stock solutions of test compounds were prepared to 20 mg/ml in DMSO (100%), […]
(§7) lowest being 0.001 µg/ml. […]
(§8) of cell suspension in each well and developed afterward by adding 25 µl of sterile MTT (Thermo

Data set [2] can be described thus: physchem. As to conditions: for solubility: pH 7.4, Sol. (solubility). As to the method:
Aqueous Solubility. Solubility was measured from amorphous solid forms of the compounds using the turbidimetric method. Following the dissolution of test compound in DMSO to make a 10 mM stock solution, a pre-dilution plate was prepared by taking from each stock solution and serially […]
pre-dilution solution, secondary dilutions of the compounds in both DMSO and 0.01M pH 7.4 PBS were prepared in triplicate on a second 96-well plate. Wells in columns 1-6 would contain […]
as §1, §2, §3, §4, §5, §6, §7, §8

The subject of data set [3] is late-stage gametocytes (PfLGc), NF54-PfS16-GFP-Luc. The experiment in a line: Antigametocytic luciferase reporter assay, late stage. The following applies: Plasmodium falciparum; for inhibition at 1 µM / inhibition at 5 µM: NF54, 48 h; for inhibition at 1 µM: read-out: Late gametocytes (LG) % activity, 1.0 µM; for inhibition at 5 µM: read-out: Late gametocytes (LG) % activity, 5.0 µM; for IC50: NF54, read-out: gametocytes IC50, late-stage (PfLGc / PfLG). An excerpt:
In vitro Antigametocytic Activity Assay. Gametocytes were produced as per the method reported by Reader and co-workers.3 The luciferase reporter assay was used to enable accurate, reliable and quantifiable investigations of the stage-specific action of gametocytocidal compounds for the early and late gametocyte marker cell line NF54-PfS16-GFP-Luc.
(representing >90% of either early stage II/III or mature/late stage IV/V gametocytes, respectively). […]
h drug pressure in a gas chamber (90% N 2, 5% O 2, and 5% CO 2) at 37 °C. Luciferase activity was determined in 30 µl parasite lysates by adding 30 µl luciferin substrate (Promega Luciferase Assay System) at room temperature and detection of resultant bioluminescence at an integration constant of 10s with the GloMax® Explorer Detection System with Instinct® Software. […]
µM) and internal project specific controls were included as controls. The dual point screens were performed as technical triplicates for a single biological assay.

Data set [4] in a line: in vitro. The following applies: mouse, pH 7.4.
Data set [5] can be described thus: in vitro. The following applies: human, pH 7.4.
A short description of data set [6]: physchem. As to conditions: pH 7.4.
Data set [7] concerns immature-stage gametocytes (PfiGc), NF54-PfS16-GFP-Luc. The experiment in a line: Antigametocytic luciferase reporter assay, immature/early stage. The following applies: Plasmodium falciparum; for inhibition at 1 µM / inhibition at 5 µM: NF54, 48 h; for inhibition at 1 µM: read-out: Early gametocytes (EG) % activity, 1.0 µM; for inhibition at 5 µM: read-out: Early gametocytes (EG) % activity, 5.0 µM; for IC50: NF54, read-out: gametocytes IC50, immature-stage (PfiGc / PfEG).

In data set [8] the test system is PfK1 multidrug resistant strain. The experiment in a line: microbe, parasite or virus in culture. As to conditions: Plasmodium falciparum, K1, read-out: PfIC50 K1. Type of data set: cell-based.
The next data set can be described thus: in vivo. The following applies: male, Balb/c, mouse.
Data set [9] deals with P. berghei (Pb)-infected HepG2 cell. Put plainly: microbe, parasite or virus in culture. As to conditions: Plasmodium berghei, HepG2, read-out: liver-stage PbHepG2 IC50.

≈ marks a conversion by molar mass, not a printed value. Bounds are passed on as bounds.

With `FC(F)(F)c1nc(-c2ccc(CCN3CCC(Nc4nc5ncccc5[nH]4)CC3)cc2)no1` [Compound 9], the IC50 in [1] amounted to 0.244 µM; in data set [7] it was 8.32 µM. In the data set “physchem [2]”, this compound displayed a solubility of 160 µM (≈ 73.2 µg/mL). The inhibition at 1 µM in [3] was determined as 6 ± 10.4%; in data set [7], 0.5%. Further, the inhibition at 5 µM was determined as 0% in data set [3] and 1.6 ± 2.7% in data set [7]. The share remaining at 0.5 h, 0.1 µM in the data set “in vitro [4]” (microsomes) was determined as 99.1%; in “in vitro [5]” (microsomes), 96.9%. In addition, the microsomal CLint at 0.1 µM in “in vitro [4]” and in the data set “in vitro [5]” was less than 11.6 µL/min/mg each time. For the same compound, in “physchem [6]”, the logD was 0.24.
Regarding `Cc1ccc2[nH]c(NC3CCN(CCc4ccc(-c5noc(C(F)(F)F)n5)cc4)CC3)nc2n1` [Compound 10], the IC50 in data set [1] was determined as 0.054 µM. In [8], the IC50 came out at 0.082 µM. For the same compound, in the data set “physchem [2]”, the concentration in solution (solubility) was 120 µM (≈ 56.6 µg/mL). In data set [3], the inhibition at 1 µM amounted to 1.1 ± 1.8%, the inhibition at 5 µM worked out at 56.2 ± 7.7% and the IC50 came to 4.62 µM. In “in vivo” (iv, 3 mg/kg), this compound gave a Vd at 24 h of 43.6 L/kg and a half-life at 24 h of 3.1 h. Also, in “in vivo” (po, 10 mg/kg), the Tmax at 24 h is 0.5 h, the bioavailability at 24 h was found to be 65.2% and the half-life at 24 h was 3.8 h. In “in vitro [4]” (liver microsomes), the microsomal CLint at 0.1 µM is less than 11.6 µL/min/mg and the amount remaining at 0.5 h, 0.1 µM came to 98.3%. In the data set “in vitro [5]” (pooled liver microsomes), this compound gave a microsomal CLint at 0.1 µM of less than 11.6 µL/min/mg and an amount remaining at 0.5 h, 0.1 µM of 96.6%. Also, in data set [7], the inhibition at 1 µM came out at 39.1%, the inhibition at 5 µM amounted to 66.5 ± 4.7% and the IC50 was found to be 1.62 µM.
For `FC(F)(F)c1nc(-c2ccc(CCN3CCC(Nc4nc5cnccc5[nH]4)CC3)cc2)no1` [Compound 11], the IC50 in data set [1] amounted to 0.017 µM; in [8] it was 0.033 µM; in data set [3] it was 1.39 µM; in data set [9], 2.3 ± 0.4 µM; in data set [7] it was 1.24 µM. For the same compound, the “Sol. (solubility)” value in the data set “physchem [2]” (pH 7.4) was found to be 160 µM. In the data set “physchem [2]”, this compound registered a solubility of 150 µM (≈ 68.6 µg/mL). Further, the inhibition at 1 µM in data set [3] amounted to 30.9 ± 5%; in data set [7], 40.6 ± 0.2%. For the same compound, the values for the inhibition at 5 µM in [3] and in data set [7] were 83 ± 1.7% and 85.8 ± 1.4%, respectively. The compound further displayed a Vd at 24 h in the data set “in vivo” (iv, 3 mg/kg) of 36.1 L/kg. Moreover, the half-life at 24 h in “in vivo” (iv, 3 mg/kg) is 6.3 h; in the data set “in vivo” (po, 10 mg/kg) it was 4.8 h. This compound also gave a Cmax at 24 h in “in vivo” (po, 10 mg/kg) of 100 nM. Also, in the data set “in vivo” (po, 10 mg/kg), the Tmax at 24 h was found to be 0.7 h. Moreover, in “in vivo” (po, 10 mg/kg), the bioavailability at 24 h turned out to be 14.9%. The microsomal CLint at 0.1 µM in the data set “in vitro [4]” (liver microsomes) was less than 11.6 µL/min/mg; in “in vitro [4]”, less than 11 µL/min/mg; in “in vitro [5]” (pooled liver microsomes), less than 11.6 µL/min/mg. In addition, the values for the fraction remaining at 0.5 h, 0.1 µM in the data set “in vitro [4]” (liver microsomes) and in the data set “in vitro [5]” (pooled liver microsomes) were 97.8% and 98.9%, respectively. The same compound returned a logD in the data set “physchem [6]” of -0.82.
With `FC(F)(F)c1nc(-c2ccc(CCN3CCC(Nc4nc5cnc(Cl)cc5[nH]4)CC3)cc2)no1` [Compound 12], the IC50 in data set [1] was found to be 0.112 µM; in [8] it was 0.384 µM; in data set [3], 1.88 µM; in [7], 5.85 µM. Moreover, in “physchem [2]”, the solubility worked out at 80 µM (≈ 39.4 µg/mL). Moreover, the figures for the inhibition at 1 µM in [3] and in [7] were 31.1 ± 3.5% and 3.4 ± 2.6%, respectively. The inhibition at 5 µM in [3] was determined as 66.5 ± 2%; in [7], 23.4 ± 4.6%. Further, the microsomal CLint at 0.1 µM in the data set “in vitro [4]” (liver microsomes) and in “in vitro [5]” (pooled liver microsomes) was less than 11.6 µL/min/mg each time. Also, the share remaining at 0.5 h, 0.1 µM was determined as 96.8% in “in vitro [4]” (liver microsomes) and 98.5% in “in vitro [5]” (pooled liver microsomes).
Regarding `FC(F)(F)c1nc(-c2ccc(CCN3CCC(Nc4nc5ccccc5[nH]4)C(F)(F)C3)cc2)no1` (stereo not shown) [Compound 15], the solubility in “physchem [2]” came out at 80 µM (≈ 39.4 µg/mL).

The values above are taken from paper PMC11017395 (ACS Medicinal Chemistry Letters, 2024).
